Results published in article PMC12820563, “FoxP3 forms a head-to-head dimer in vivo and stabilizes its multimerization on adjacent microsatellites”.
This is one part of the list.

The sequences below were run against T1, MBP-FoxP1dN (Mus musculus, UniProt P58462 326-579) (assay: PD-seq (MBP pull-down with sequencing); 20 mM Tris-HCl pH 7.5, 100 mM NaCl, 1.5 mM MgCl2, 0.4 uM protein, 0.1 uM dsDNA library, 30 min, room temperature, amylose pull-down; high values mean tight binding). Conditions: protein: recombinant; tags: His6-MBP; chain copies: 2; dsDNA, one strand shown.
T1 sequence: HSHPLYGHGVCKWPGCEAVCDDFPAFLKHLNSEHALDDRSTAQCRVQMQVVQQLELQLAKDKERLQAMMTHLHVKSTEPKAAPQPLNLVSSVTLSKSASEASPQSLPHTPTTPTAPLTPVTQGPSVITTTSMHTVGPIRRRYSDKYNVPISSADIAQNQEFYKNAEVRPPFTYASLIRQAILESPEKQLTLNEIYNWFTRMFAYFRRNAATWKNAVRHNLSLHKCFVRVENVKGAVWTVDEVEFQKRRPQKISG
Summary of the method: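 Mouse FoxP3 or FoxP1 fragment lacking the N-terminus, His6-MBP-tagged and expressed in E. coli, was incubated at 0.4 µM with 0.1 µM Klenow-filled degenerate double-stranded DNA library for 30 min at room temperature in Tris pH 7.5 buffer with NaCl and MgCl2. Complexes captured on amylose resin were washed three times and their DNA sequenced on Illumina. Binding is reads-per-million enrichment of pull-down over input, replicates pooled.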

| Sequence | binding signal |
| --- | --- |
| GATGATTGTTCTCCCAGCTGATGAATTGCATAGATCGAGTAAACAAATTTTCCTAATCTTTCTGTTCAAGCGCCATCTAC | 1.08 RPM ratio (pull-down/input) |
| GATGATTGTTCTCCCAGCTGATGAATTCTCATGCTCGAGTAAACAAATTTTCCTAATCTTTCTGTTCAAGCGCCATCTAC | 0.856 RPM ratio (pull-down/input) |
| GATGATTGTTCTCCCAGCTGATGAATTGCGTCTGTCGAGTAAACAAATTTTCCTAATCTTTCTGTTCAAGCGCCATCTAC | 1.03 RPM ratio (pull-down/input) |
| GATGATTGTTCTCCCAGCTGATGAATTAGCATTGTCGAGTAAACAAATTTTCCTAATCTTTCTGTTCAAGCGCCATCTAC | 1.29 RPM ratio (pull-down/input) |
| GATGATTGTTCTCCCAGCTGATGAATTCCAGACCTCGAGTAAACAAATTTTCCTAATCTTTCTGTTCAAGCGCCATCTAC | 0.724 RPM ratio (pull-down/input) |
| GATGATTGTTCTCCCAGCTGATGAATTTGTCGAGTCGAGTAAACAAATTTTCCTAATCTTTCTGTTCAAGCGCCATCTAC | 0.987 RPM ratio (pull-down/input) |
| GATGATTGTTCTCCCAGCTGATGAATTGATTGGTTCGAGTAAACAAATTTTCCTAATCTTTCTGTTCAAGCGCCATCTAC | 1.1 RPM ratio (pull-down/input) |
| GATGATTGTTCTCCCAGCTGATGAATTCGTGTAATCGAGTAAACAAATTTTCCTAATCTTTCTGTTCAAGCGCCATCTAC | 1.43 RPM ratio (pull-down/input) |
| GATGATTGTTCTCCCAGCTGATGAATTTAGGAATTCGAGTAAACAAATTTTCCTAATCTTTCTGTTCAAGCGCCATCTAC | 0.973 RPM ratio (pull-down/input) |
| GATGATTGTTCTCCCAGCTGATGAATTGTCTCACTCGAGTAAACAAATTTTCCTAATCTTTCTGTTCAAGCGCCATCTAC | 0.978 RPM ratio (pull-down/input) |
| GATGATTGTTCTCCCAGCTGATGAATTGGGTTTATCGAGTAAACAAATTTTCCTAATCTTTCTGTTCAAGCGCCATCTAC | 1.14 RPM ratio (pull-down/input) |
| GATGATTGTTCTCCCAGCTGATGAATTCCCTTCTTCGAGTAAACAAATTTTCCTAATCTTTCTGTTCAAGCGCCATCTAC | 0.876 RPM ratio (pull-down/input) |
| GATGATTGTTCTCCCAGCTGATGAATTGTTCGAGTCGAGTAAACAAATTTTCCTAATCTTTCTGTTCAAGCGCCATCTAC | 1.05 RPM ratio (pull-down/input) |
| GATGATTGTTCTCCCAGCTGATGAATTGGTTCGATCGAGTAAACAAATTTTCCTAATCTTTCTGTTCAAGCGCCATCTAC | 0.883 RPM ratio (pull-down/input) |
| GATGATTGTTCTCCCAGCTGATGAATTGGCTGTTTCGAGTAAACAAATTTTCCTAATCTTTCTGTTCAAGCGCCATCTAC | 0.946 RPM ratio (pull-down/input) |
| GATGATTGTTCTCCCAGCTGATGAATTAGAGACATCGAGTAAACAAATTTTCCTAATCTTTCTGTTCAAGCGCCATCTAC | 1.04 RPM ratio (pull-down/input) |

| Sequence | binding signal |
| --- | --- |
| GATGATTGTTCTCCCAGCTGATGAATTCCAAACTTCGAGTAAACAAATTTTCCTAATCTTTCTGTTCAAGCGCCATCTAC | 0.809 RPM ratio (pull-down/input) |
| GATGATTGTTCTCCCAGCTGATGAATTTGCGAGCTCGAGTAAACAAATTTTCCTAATCTTTCTGTTCAAGCGCCATCTAC | 0.907 RPM ratio (pull-down/input) |
| GATGATTGTTCTCCCAGCTGATGAATTCAAAGAGTCGAGTAAACAAATTTTCCTAATCTTTCTGTTCAAGCGCCATCTAC | 0.821 RPM ratio (pull-down/input) |
| GATGATTGTTCTCCCAGCTGATGAATTGCACGAGTCGAGTAAACAAATTTTCCTAATCTTTCTGTTCAAGCGCCATCTAC | 0.968 RPM ratio (pull-down/input) |
| GATGATTGTTCTCCCAGCTGATGAATTTTCCCCCTCGAGTAAACAAATTTTCCTAATCTTTCTGTTCAAGCGCCATCTAC | 0.785 RPM ratio (pull-down/input) |
| GATGATTGTTCTCCCAGCTGATGAATTTCACGCATCGAGTAAACAAATTTTCCTAATCTTTCTGTTCAAGCGCCATCTAC | 1.01 RPM ratio (pull-down/input) |
| GATGATTGTTCTCCCAGCTGATGAATTCCTAAGTTCGAGTAAACAAATTTTCCTAATCTTTCTGTTCAAGCGCCATCTAC | 0.833 RPM ratio (pull-down/input) |
| GATGATTGTTCTCCCAGCTGATGAATTCAGAAGGTCGAGTAAACAAATTTTCCTAATCTTTCTGTTCAAGCGCCATCTAC | 0.727 RPM ratio (pull-down/input) |
| GATGATTGTTCTCCCAGCTGATGAATTGTACTGTTCGAGTAAACAAATTTTCCTAATCTTTCTGTTCAAGCGCCATCTAC | 1.09 RPM ratio (pull-down/input) |
| GATGATTGTTCTCCCAGCTGATGAATTTTGGATCTCGAGTAAACAAATTTTCCTAATCTTTCTGTTCAAGCGCCATCTAC | 0.787 RPM ratio (pull-down/input) |
| GATGATTGTTCTCCCAGCTGATGAATTTTAGAGATCGAGTAAACAAATTTTCCTAATCTTTCTGTTCAAGCGCCATCTAC | 0.867 RPM ratio (pull-down/input) |
| GATGATTGTTCTCCCAGCTGATGAATTCTCGAACTCGAGTAAACAAATTTTCCTAATCTTTCTGTTCAAGCGCCATCTAC | 0.76 RPM ratio (pull-down/input) |
| GATGATTGTTCTCCCAGCTGATGAATTCCTGCGATCGAGTAAACAAATTTTCCTAATCTTTCTGTTCAAGCGCCATCTAC | 0.876 RPM ratio (pull-down/input) |
| GATGATTGTTCTCCCAGCTGATGAATTTATGCTCTCGAGTAAACAAATTTTCCTAATCTTTCTGTTCAAGCGCCATCTAC | 1.11 RPM ratio (pull-down/input) |
| GATGATTGTTCTCCCAGCTGATGAATTTAAACTATCGAGTAAACAAATTTTCCTAATCTTTCTGTTCAAGCGCCATCTAC | 0.987 RPM ratio (pull-down/input) |
| GATGATTGTTCTCCCAGCTGATGAATTTGACTAGTCGAGTAAACAAATTTTCCTAATCTTTCTGTTCAAGCGCCATCTAC | 0.816 RPM ratio (pull-down/input) |
